Data on one substance can be found in PMC9372576.

Protein sequences, listed by entry. Tags and fused reporters are not part of them.
UniProt P24375: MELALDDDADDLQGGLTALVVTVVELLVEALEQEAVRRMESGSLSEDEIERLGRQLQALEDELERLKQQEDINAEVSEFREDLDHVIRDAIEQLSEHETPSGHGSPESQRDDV

These are yes or no findings as the source states them, for the method shown. Binding seen in cells or lysates may run through a third protein. Some entries that bind do so weakly or less than the wild type. Where a sequence is shown, tags or fusion partners need not be part of it.

For this assay, the target named is T1, GvpC fused to NGFP or CGFP (Halobacterium salinarum) (UniProt P24574).
T1 sequence: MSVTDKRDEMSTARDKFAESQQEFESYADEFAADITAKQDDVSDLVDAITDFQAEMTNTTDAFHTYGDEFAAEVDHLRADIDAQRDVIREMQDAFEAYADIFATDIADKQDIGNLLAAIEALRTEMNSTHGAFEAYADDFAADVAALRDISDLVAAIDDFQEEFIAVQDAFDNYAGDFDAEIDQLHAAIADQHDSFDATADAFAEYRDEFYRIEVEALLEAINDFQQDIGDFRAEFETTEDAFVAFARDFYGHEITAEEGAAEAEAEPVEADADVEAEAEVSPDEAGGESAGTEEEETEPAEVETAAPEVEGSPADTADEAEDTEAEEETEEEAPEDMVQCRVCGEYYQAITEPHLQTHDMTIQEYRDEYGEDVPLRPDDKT
Description: split reporter; split-GFP (NGFP and CGFP of salt-stable mGFP2) in Hfx. volcanii transformants, 24 h 37 °C then 24 h 30 °C; relative fluorescence (rf) against the wild type; the highest of eight tag combinations is given.

Take “GvpK fused to NGFP or CGFP (from UniProt P24375 1-113)”: the binding entry is recorded as “binds”.
